Data from the supplement of paper PMC8728848.
The other results are listed elsewhere or left out.

Key:
Assay in all cases: glycan array binding signal (z-score within array); higher = stronger binding
Conditions in all cases: glycan notation: IUPAC condensed, linker removed
Gal(a1-3)Gal = target: Gal(a1-3)Gal
In short: (§1)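 The binding signal is a Z-score computed within each array. Data were drawn from 3228 arrays in the Consortium for Functional Glycomics database, restricted to those with a known protein sequence. Scores were averaged over arrays of the same protein sequence at different concentrations or buffers, and over linkers, and negative values can be taken as non-binding.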

Gal(a1-3)Gal(b1-3)GlcNAc = target: Gal(a1-3)Gal(b1-3)GlcNAc
In short: as §1

[1] = target: Gal(a1-3)Gal(b1-3)GlcNAc(b1-2)Man
In short: as §1

[2] = target: Gal(a1-3)Gal(b1-3)GlcNAc(b1-2)Man(a1-3)[Gal(a1-3)Gal(b1-3)GlcNAc(b1-2)Man(a1-6)]Man(b1-4)GlcNAc(b1-4)GlcNAc
In short: as §1

[3] = target: Gal(a1-3)Gal(b1-3)GlcNAc(b1-3)GalNAc
In short: as §1

[4] = target: Gal(a1-3)Gal(b1-3)GlcNAc(b1-6)GalNAc
In short: as §1

[5] = target: Gal(a1-3)Gal(b1-3)[Fuc(a1-4)]GlcNAc(b1-2)Man(a1-3)[Gal(a1-3)Gal(b1-3)[Fuc(a1-4)]GlcNAc(b1-2)Man(a1-6)]Man(b1-4)GlcNAc(b1-4)GlcNAc
In short: as §1

Gal(a1-3)Gal(b1-4)Glc = target: Gal(a1-3)Gal(b1-4)Glc
In short: as §1

Gal(a1-3)Gal(b1-4)GlcNAc = target: Gal(a1-3)Gal(b1-4)GlcNAc
In short: as §1

[6] = target: Gal(a1-3)Gal(b1-4)GlcNAc(b1-2)Man
In short: as §1

[7] = target: Gal(a1-3)Gal(b1-4)GlcNAc(b1-2)Man(a1-3)[Gal(a1-3)Gal(b1-4)GlcNAc(b1-2)Man(a1-6)]Man(b1-4)GlcNAc(b1-4)GlcNAc
In short: as §1

[8] = target: Gal(a1-3)Gal(b1-4)GlcNAc(b1-3)GalNAc
In short: as §1

[9] = target: Gal(a1-3)Gal(b1-4)GlcNAc(b1-6)GalNAc
In short: as §1

[10] = target: Gal(a1-3)Gal(b1-4)[Fuc(a1-3)]GlcNAc
In short: as §1

[11] = target: Gal(a1-3)Gal(b1-4)[Fuc(a1-3)]GlcNAc(b1-2)Man(a1-3)[Gal(a1-3)Gal(b1-4)[Fuc(a1-3)]GlcNAc(b1-2)Man(a1-6)]Man(b1-4)GlcNAc(b1-4)GlcNAc
In short: as §1

Gal(a1-3)GalNAc = target: Gal(a1-3)GalNAc
In short: as §1

[12] = target: Gal(a1-3)[Gal(a1-4)]Gal(b1-4)GlcNAc
In short: as §1

[13] = target: Gal(a1-4)Gal(b1-3)GlcNAc(b1-2)Man(a1-3)[Gal(a1-4)Gal(b1-3)GlcNAc(b1-2)Man(a1-6)]Man(b1-4)GlcNAc(b1-4)GlcNAc
In short: as §1

Gal(a1-4)Gal(b1-4)Glc = target: Gal(a1-4)Gal(b1-4)Glc
In short: as §1

Gal(a1-4)Gal(b1-4)GlcNAc = target: Gal(a1-4)Gal(b1-4)GlcNAc
In short: as §1

[14] = target: Gal(a1-4)Gal(b1-4)GlcNAc(b1-2)Man(a1-3)[Gal(a1-4)Gal(b1-4)GlcNAc(b1-2)Man(a1-6)]Man(b1-4)GlcNAc(b1-4)GlcNAc
In short: as §1

[15] = target: Gal(a1-4)Gal(b1-4)GlcNAc(b1-3)Gal(b1-4)Glc
In short: as §1

Gal(a1-4)GlcNAc = target: Gal(a1-4)GlcNAc
In short: as §1

Gal(a1-6)Glc = target: Gal(a1-6)Glc
In short: as §1

Gal(b1-2)Gal = target: Gal(b1-2)Gal
In short: as §1

Gal(b1-3)Gal = target: Gal(b1-3)Gal
In short: as §1

Gal(b1-3)Gal(b1-4)GlcNAc = target: Gal(b1-3)Gal(b1-4)GlcNAc
In short: as §1

Gal(b1-3)GalNAc = target: Gal(b1-3)GalNAc
In short: as §1

[16] = target: Gal(b1-3)GalNAc(a1-3)[Fuc(a1-2)]Gal(b1-4)Glc
In short: as §1

[17] = target: Gal(b1-3)GalNAc(a1-3)[Fuc(a1-2)]Gal(b1-4)GlcNAc
In short: as §1

Gal(b1-3)GalNAc(b1-3)Gal = target: Gal(b1-3)GalNAc(b1-3)Gal
In short: as §1

[18] = target: Gal(b1-3)GalNAc(b1-3)Gal(a1-4)Gal(b1-4)Glc
In short: as §1

[19] = target: Gal(b1-3)GalNAc(b1-4)Gal(b1-4)Glc
In short: as §1

[20] = target: Gal(b1-3)GalNAc(b1-4)[Neu5Ac(a2-3)]Gal(b1-4)Glc
In short: as §1

Gal(b1-3)GlcNAc = target: Gal(b1-3)GlcNAc
In short: as §1

[21] = target: Gal(b1-3)GlcNAc(a1-3)Gal(b1-4)GlcNAc
In short: as §1

[22] = target: Gal(b1-3)GlcNAc(a1-6)Gal(b1-4)GlcNAc
In short: as §1

Gal(b1-3)GlcNAc(b1-2)Man = target: Gal(b1-3)GlcNAc(b1-2)Man
In short: as §1

B1: Gal-9-hFc (Mus musculus), O08573-2 (protein)
chain: MALFSAQSPYINPIIPFTGPIQGGLQEGLQVTLQGTTKSFAQRFVVNFQNSFNGNDIAFHFNPRFEEGGYVVCNTKQNGQWGPEERKMQMPFQKGMPFELCFLVQRSEFKVMVNKKFFVQYQHRVPYHLVDTIAVSGCLKLSFITFQTQNFRPAHQAPMAQTTIHMVHSTPGQMFSTPGIPPVVYPTPAYTIPFYTPIPNGLYPSKSIMISGNVLPDATRFHINLRCGGDIAFHLNPRFNENAVVRNTQINNSWGQEERSLLGRMPFSRGQSFSVWIICEGHCFKVAVNGQHMCEYYHRLKNLQDINTLEVAGDIQLTHVQT
Gal(a1-3)Gal
  glycan array binding signal (z-score): 0.14
Gal(a1-3)Gal(b1-3)GlcNAc
  glycan array binding signal (z-score): 1.06
[1]
  glycan array binding signal (z-score): -0.188
[2]
  glycan array binding signal (z-score): 0.737
[3]
  glycan array binding signal (z-score): -0.357
[4]
  glycan array binding signal (z-score): -0.355
[5]
  glycan array binding signal (z-score): 0.868
Gal(a1-3)Gal(b1-4)Glc
  glycan array binding signal (z-score): 0.167
Gal(a1-3)Gal(b1-4)GlcNAc
  glycan array binding signal (z-score): -0.217
[6]
  glycan array binding signal (z-score): -0.328
[7]
  glycan array binding signal (z-score): 0.065
[8]
  glycan array binding signal (z-score): -0.421
[9]
  glycan array binding signal (z-score): -0.323
[10]
  glycan array binding signal (z-score): -0.64
[11]
  glycan array binding signal (z-score): -0.043
Gal(a1-3)GalNAc
  glycan array binding signal (z-score): -0.439
[12]
  glycan array binding signal (z-score): -0.295
[13]
  glycan array binding signal (z-score): -0.289
Gal(a1-4)Gal(b1-4)Glc
  glycan array binding signal (z-score): 0.77
Gal(a1-4)Gal(b1-4)GlcNAc
  glycan array binding signal (z-score): -0.346
[14]
  glycan array binding signal (z-score): -0.328
[15]
  glycan array binding signal (z-score): -0.168
Gal(a1-4)GlcNAc
  glycan array binding signal (z-score): -0.452
Gal(a1-6)Glc
  glycan array binding signal (z-score): 0.19
Gal(b1-2)Gal
  glycan array binding signal (z-score): 0.277
Gal(b1-3)Gal
  glycan array binding signal (z-score): 0.036
Gal(b1-3)Gal(b1-4)GlcNAc
  glycan array binding signal (z-score): -0.119
Gal(b1-3)GalNAc
  glycan array binding signal (z-score): -0.126
[16]
  glycan array binding signal (z-score): 0.123
[17]
  glycan array binding signal (z-score): -0.259
Gal(b1-3)GalNAc(b1-3)Gal
  glycan array binding signal (z-score): -0.517
[18]
  glycan array binding signal (z-score): -0.158
[19]
  glycan array binding signal (z-score): -0.105
[20]
  glycan array binding signal (z-score): -0.367
Gal(b1-3)GlcNAc
  glycan array binding signal (z-score): -0.214
[21]
  glycan array binding signal (z-score): -0.259
[22]
  glycan array binding signal (z-score): -0.477
Gal(b1-3)GlcNAc(b1-2)Man
  glycan array binding signal (z-score): -0.243
